Source: patent US20240400717A1, “Antibody Binding to CHI3L1 for Treating Cancer” (National Cheng Kung University, priority 2021, published 2024)

Target: T1, CHI3L1 binding to IL-13Rα2 on A549 cell line (Homo sapiens, UniProt P36222)
T1 construct: host or cells: A549 cells carry the receptor
Test: Functional screen: block of CHI3L1 binding to IL-13Rα2 on A549 cell line
Type: cell-based
Conditions: A549 cells, compared with CHI3L1 only
Description: CHI3L1 is known to associate with different receptors, such as IL-13Rα2 (He et al. 2013), CRTH2 (Zhou et al. 2015), TMEM219 (Lee et al. 2016), and galectin-3 (Zhou et al. 2015). […] Therefore, purified antibody leads were functionally screened for their ability to block CHI3L1 binding to IL-13Rα2 on A549 cell line (FIG. 3A). […] The sequences and defied CDR regions among those monoclonal antibodies are listed and summarized in the sequences list (SEQ ID NOs: 1 to 88) and Table 2, respectively. […]

T1 sequence (P36222 22-383): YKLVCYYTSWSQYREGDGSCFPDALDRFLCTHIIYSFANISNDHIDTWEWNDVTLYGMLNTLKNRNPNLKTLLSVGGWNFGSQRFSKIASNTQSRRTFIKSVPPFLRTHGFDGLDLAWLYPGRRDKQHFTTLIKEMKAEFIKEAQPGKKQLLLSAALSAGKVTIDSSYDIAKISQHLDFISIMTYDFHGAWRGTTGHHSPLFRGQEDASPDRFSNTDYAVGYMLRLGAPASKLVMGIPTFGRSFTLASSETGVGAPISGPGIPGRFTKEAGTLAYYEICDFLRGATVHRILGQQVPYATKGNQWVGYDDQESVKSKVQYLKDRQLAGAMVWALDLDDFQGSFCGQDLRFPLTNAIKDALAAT

CHI3L1 neutralizing activity: best neutralizing activity
B1: #R4-39: fully human anti-CHI3L1 mAb, Table 1 No. 26; heavy chain SEQ ID NO: 17, light chain SEQ ID NO: 18 (antibody, listed as Homo sapiens)
VH: EVQLVQSGAEVRKPGESLKISCKASGYRFTNYWIGWVRQMPGKGLEWMGIIYPDDSNTKYSPSFQGQVTISVDKPITTAYLQWSSLKASDTAMYYCVRLDTYYYDSSGFPFDAFDIWGQGTMVTVSS
light: DIQMTQSPSSLSAFVGDRVTITCQASQDISTFLSWYQQKPGKAPKLLIYDATNLETGVPSRFSGRGSGTDFTFTISSLQPEDVATYFCQQYDFLPLSFGGGTKVEIRRTVAAPSVFIFPPSDEQLKSGTASVVCLLNNFYPREAKVQWKVDNALQSGNSQESVTEQDSKDSTYSLSSTLTLSKADYEKHKVYACEVTHQGLNSPVTKSFNRGEC
